Patent US20220339143A1, “TAK-925 FOR USE IN TREATING NARCOLEPSY” (Takeda Pharmaceutical Company Limited, priority 2019, published 2022)
This continues a long series; more values of the same kind are listed elsewhere.

Test: Single dose PK in healthy subjects (Cohorts 1, 2, S1 and S2), plasma
Format: in vivo, human
Experimental: This study investigates (i) the safety and tolerability of Compound A (methyl (2R,3S)-3-((methylsulfonyl)amino)-2-(((cis-4-phenylcyclohexyl)oxy)methyl)piperidine-1-carboxylate) when a single dose given as a 9 hour continuous IV infusion is administered to healthy adults, healthy elderly subjects and patients with narcolepsy type 1 (NT1); (ii) the pharmacokinetics of Compound A when a single dose given as a 9 hour continuous IV infusion is administered to healthy adults, healthy elderly subjects and patients with narcolepsy type 1; and (iii) the pharmacodynamics (PD) effects of Compound A, primarily by evaluation of the sleep latency on MWT when a single dose given as a 9 hour continuous IV infusion is administered to patients with narcolepsy type 1.
Pharmacokinetics: Concentrations of Compound A in plasma, and CSF, and pharmacokinetics parameters.
On average, the time to reach the plateau appeared to be approximately 3 to 4 hours after the start of infusion. […] After switching off the IV infusion, Compound A plasma concentrations declined rapidly and in a biphasic manner with a mean terminal disposition phase t1/2z ranging approximately from 3.4 to 5.1 hours across all doses. […] Table 5 provides a summary of plasma concentrations of Compound A after a single IV infusion in healthy subjects. Table 6 provides a summary of pharmacokinetic parameters of Compound A after a single IV infusion in healthy subjects.

[1] = 28 mg, 3 hr After End of Infusion
[2] = 28 mg, 4 hr After End of Infusion
[3] = 28 mg, 6 hr After End of Infusion
[4] = 28 mg, 10 hr After End of Infusion
[5] = 28 mg, 15 hr After End of Infusion
[6] = 56 mg, 0.33 hr After End of Infusion
[7] = 56 mg, 0.5 hr After End of Infusion
[8] = 56 mg, 0.75 hr After End of Infusion
[9] = 56 mg, 1 hr After End of Infusion
[10] = 56 mg, 1.5 hr After End of Infusion
[11] = 56 mg, 2 hr After End of Infusion
[12] = 56 mg, 3 hr After End of Infusion
[13] = 56 mg, 4 hr After End of Infusion
[14] = 56 mg, 6 hr After End of Infusion
[15] = 56 mg, 10 hr After End of Infusion
[16] = 56 mg, 15 hr After End of Infusion
[17] = 112 mg, 0.33 hr After End of Infusion
[18] = 112 mg, 0.5 hr After End of Infusion
[19] = 112 mg, 0.75 hr After End of Infusion
[20] = 112 mg, 1 hr After End of Infusion
[21] = 112 mg, 1.5 hr After End of Infusion
[22] = 112 mg, 2 hr After End of Infusion

COC(=O)N1CCC[C@H](NS(C)(=O)=O)[C@@H]1CO[C@H]1CC[C@@H](c2ccccc2)CC1 [Compound A, methyl (2R,3S)-3-((methylsulfonyl)amino)-2-(((cis-4-phenylcyclohexyl)oxy)methyl)piperidine-1-carboxylate]
Plasma concentration, Mean [1]: 8.746 ng/mL | Plasma concentration, Median [1]: 8.410 ng/mL | Plasma concentration, Minimum [1]: 5.23 ng/mL | Plasma concentration, Q1 [1]: 7.640 ng/mL | Plasma concentration, Q3 [1]: 9.050 ng/mL | Plasma concentration, Maximum [2]: 10.8 ng/mL | Plasma concentration, Mean [2]: 7.458 ng/mL | Plasma concentration, Median [2]: 7.600 ng/mL | Plasma concentration, Minimum [2]: 5.09 ng/mL | Plasma concentration, Q1 [2]: 6.020 ng/mL | Plasma concentration, Q3 [2]: 7.780 ng/mL | Plasma concentration, Maximum [3]: 5.79 ng/mL | Plasma concentration, Mean [3]: 3.948 ng/mL | Plasma concentration, Median [3]: 3.510 ng/mL | Plasma concentration, Minimum [3]: 2.34 ng/mL | Plasma concentration, Q1 [3]: 3.040 ng/mL | Plasma concentration, Q3 [3]: 5.060 ng/mL | Plasma concentration, Maximum [4]: 3.87 ng/mL | Plasma concentration, Mean [4]: 2.510 ng/mL | Plasma concentration, Median [4]: 2.440 ng/mL | Plasma concentration, Minimum [4]: 1.67 ng/mL | Plasma concentration, Q1 [4]: 1.810 ng/mL | Plasma concentration, Q3 [4]: 2.760 ng/mL | Plasma concentration, Maximum [5]: 2.58 ng/mL | Plasma concentration, Mean [5]: 1.241 ng/mL | Plasma concentration, Median [5]: 1.120 ng/mL | Plasma concentration, Minimum [5]: 0.402 ng/mL | Plasma concentration, Q1 [5]: 0.8820 ng/mL | Plasma concentration, Q3 [5]: 1.220 ng/mL | Plasma concentration, Maximum (28 mg, Predose): 0.00 ng/mL | Plasma concentration, Mean (28 mg, Predose): 0.000 ng/mL | Plasma concentration, Median (28 mg, Predose): 0.000 ng/mL | Plasma concentration, Minimum (28 mg, Predose): 0.00 ng/mL | Plasma concentration, Q1 (28 mg, Predose): 0.000 ng/mL | Plasma concentration, Q3 (28 mg, Predose): 0.000 ng/mL | Plasma concentration, Maximum [6]: 73.8 ng/mL | Plasma concentration, Q3 [6]: 56.20 ng/mL | Plasma concentration, Maximum [7]: 69.4 ng/mL | Plasma concentration, Q3 [7]: 53.10 ng/mL | Plasma concentration, Maximum [8]: 59.6 ng/mL | Plasma concentration, Q3 [8]: 50.40 ng/mL | Plasma concentration, Maximum [9]: 57.0 ng/mL | Plasma concentration, Q3 [9]: 49.50 ng/mL | Plasma concentration, Maximum [10]: 48.3 ng/mL | Plasma concentration, Q3 [10]: 35.00 ng/mL | Plasma concentration, Maximum [11]: 34.6 ng/mL | Plasma concentration, Median [11]: 20.20 ng/mL | Plasma concentration, Q3 [11]: 24.20 ng/mL | Plasma concentration, Maximum [12]: 27.5 ng/mL | Plasma concentration, Mean [12]: 18.22 ng/mL | Plasma concentration, Median [12]: 18.30 ng/mL | Plasma concentration, Minimum [12]: 10.9 ng/mL | Plasma concentration, Q1 [12]: 13.90 ng/mL | Plasma concentration, Q3 [12]: 20.40 ng/mL | Plasma concentration, Maximum [13]: 23.5 ng/mL | Plasma concentration, Mean [13]: 14.62 ng/mL | Plasma concentration, Median [13]: 14.60 ng/mL | Plasma concentration, Minimum [13]: 8.12 ng/mL | Plasma concentration, Q1 [13]: 11.20 ng/mL | Plasma concentration, Q3 [13]: 15.70 ng/mL | Plasma concentration, Maximum [14]: 16.4 ng/mL | Plasma concentration, Mean [14]: 8.382 ng/mL | Plasma concentration, Median [14]: 7.300 ng/mL | Plasma concentration, Minimum [14]: 4.44 ng/mL | Plasma concentration, Q1 [14]: 6.650 ng/mL | Plasma concentration, Q3 [14]: 8.200 ng/mL | Plasma concentration, Maximum [15]: 11.0 ng/mL | Plasma concentration, Mean [15]: 4.343 ng/mL | Plasma concentration, Median [15]: 3.370 ng/mL | Plasma concentration, Minimum [15]: 2.21 ng/mL | Plasma concentration, Q1 [15]: 2.320 ng/mL | Plasma concentration, Q3 [15]: 3.790 ng/mL | Plasma concentration, Maximum [16]: 5.07 ng/mL | Plasma concentration, Mean [16]: 1.885 ng/mL | Plasma concentration, Median [16]: 1.510 ng/mL | Plasma concentration, Minimum [16]: 0.767 ng/mL | Plasma concentration, Q1 [16]: 0.8930 ng/mL | Plasma concentration, Q3 [16]: 1.560 ng/mL | Plasma concentration, Maximum (56 mg, Predose): 0.00 ng/mL | Plasma concentration, Mean (56 mg, Predose): 0.000 ng/mL | Plasma concentration, Median (56 mg, Predose): 0.000 ng/mL | Plasma concentration, Minimum (56 mg, Predose): 0.00 ng/mL | Plasma concentration, Q1 (56 mg, Predose): 0.000 ng/mL | Plasma concentration, Q3 (56 mg, Predose): 0.000 ng/mL | Plasma concentration, Maximum [17]: 127 ng/mL | Plasma concentration, Mean [17]: 104.7 ng/mL | Plasma concentration, Median [17]: 105.5 ng/mL | Plasma concentration, Minimum [17]: 87.1 ng/mL | Plasma concentration, Q1 [17]: 92.10 ng/mL | Plasma concentration, Q3 [17]: 111.0 ng/mL | Plasma concentration, Maximum [18]: 113 ng/mL | Plasma concentration, Mean [18]: 95.03 ng/mL | Plasma concentration, Median [18]: 94.85 ng/mL | Plasma concentration, Minimum [18]: 78.0 ng/mL | Plasma concentration, Q1 [18]: 86.50 ng/mL | Plasma concentration, Q3 [18]: 103.0 ng/mL | Plasma concentration, Maximum [19]: 94.1 ng/mL | Plasma concentration, Mean [19]: 81.02 ng/mL | Plasma concentration, Median [19]: 83.95 ng/mL | Plasma concentration, Minimum [19]: 66.3 ng/mL | Plasma concentration, Q1 [19]: 72.40 ng/mL | Plasma concentration, Q3 [19]: 85.40 ng/mL | Plasma concentration, Maximum [20]: 89.2 ng/mL | Plasma concentration, Mean [20]: 73.08 ng/mL | Plasma concentration, Median [20]: 71.55 ng/mL | Plasma concentration, Minimum [20]: 62.8 ng/mL | Plasma concentration, Q1 [20]: 64.10 ng/mL | Plasma concentration, Q3 [20]: 79.30 ng/mL | Plasma concentration, Maximum [21]: 68.9 ng/mL | Plasma concentration, Mean [21]: 58.00 ng/mL | Plasma concentration, Median [21]: 59.00 ng/mL | Plasma concentration, Minimum [21]: 44.9 ng/mL | Plasma concentration, Q1 [21]: 51.50 ng/mL | Plasma concentration, Q3 [21]: 64.70 ng/mL | Plasma concentration, Maximum [22]: 53.9 ng/mL | Plasma concentration, Mean [22]: 42.08 ng/mL | Plasma concentration, Median [22]: 42.50 ng/mL | Plasma concentration, Minimum [22]: 31.4 ng/mL
